To fix the notation:
B1: LINE1-mini (parent)
chain: GGCAGAGCUCAACACAGCGUGGCAAAGUGGCUGUGGCUAGACUGCC

The source gives no read counts; variants with many changes may rest on few reads.

Variants of B1 are the subject of this data set. As to the kind of experiment: self-cleavage, relative activity (ratio to wild type); higher = more cleavage; in vitro, sequencing; the parent is a self-cleaving ribozyme.
In the case of G2C G21U A25U C46A, the self-cleavage stood at 0.34. The same measure for G2C C23A G30A: 0.15.

In the case of G2U A4G G22U A24U U34A A39U C46A, the self-cleavage was 0.07. The figure for G2C C10G G29C G36U is 0.01; for G2C G22C C31G it is 0.12.

Consider G2C G17U G21U, for which the self-cleavage was 0.05. The figure for G2C G5C A16U G22U is 0.04; for G2C G29C C45G it is 0.43. The same measure for G2C U9C A11C C13G U28C G30U: 0.01; for G2C G21A C37G: 0.17; for G2C C13U A14U C15A G19U A24U G33A G35U A41U: 0.09.

Consider G2C U9C G21C G29C C42A, for which the self-cleavage was 0.01. The figure for G2C G33A G35C C45G is 0.04. The figure for G2C G7C U20G C31G G35U C46A is 0.02; for G2C G21A A25U G27U it is 0.29; for G2C C18A G22U it is 0.08. With G2C U9C G35C, the self-cleavage was found to be 0.04.

Consider G2C U20A G21A C23A A26U G30A G36C G44U, for which the self-cleavage was found to be 0.2. The figure for G2C G17A C31G U34C C37A is 0.07; for G2C C15U C23A it is 0.06. On to G2C G35U U43G, for which the self-cleavage stood at 0. The figure for G2C U20A G21A is 0.06; for G2C C15G G33A C37U it is 0.01.

Regarding G2C G19C G36U C37U, the self-cleavage turned out to be 0.01. The figure for G2C C18U G40C is 0.03; for G2C G5C U9G C37A it is 0.02. As for G2U A4C A6G C8G A24G, the self-cleavage stood at 0.02. The figure for G2C C15G A26C G33A A41U is 0.01. In the case of G2C C13G G36C, the self-cleavage was determined as 0.05. As for G2C G5C A11U U20A C23G G29U, the self-cleavage was 0.01. In the case of G2C G5U G7C C46U, the self-cleavage was 0.13. G2U A4C U9G G27U U38A: the self-cleavage was found to be 0.03. The same measure for G2C C10A G22A C23G: 0.05; for G2C C10U G33C: 0.02. For the variant G2C G21A A25G C31U, the self-cleavage worked out at 0.03.

For G2C G21U A39G, the self-cleavage was 0.02. The figure for G2C U28G A39G is 0.01; for G2C G21U G40U it is 0.12. The figure for G2U A6G A11U C46G is 0. The same measure for G2C C13A A14U A41C: 0.19; for G2U A4U C13G C23G: 0.05; for G2C U9A G33C: 0.19. For G2C G7U G22A C37G, the self-cleavage is 0.08. On to G2C C10G G17C G36U, for which the self-cleavage was determined as 0.02. The figure for G2C U9C U38C C42U is 0. On to G2C C8U C10A U20A, for which the self-cleavage was 0.01. For the variant G2C G17U C23U G33U G36A, the self-cleavage was 0.2. As to G2C G7U A16U G35A U38G, the self-cleavage came out at 0.29. As for G2C U9A G29C C37A A39G, the self-cleavage is 0. With G2C G17A G21A A26C U43G, the self-cleavage was found to be 0.

In the case of G2C C10A C23U, the self-cleavage worked out at 0.01. Consider G2C G17U C18U G33A, for which the self-cleavage was found to be 0.02. Take G2C G22A C37G G44A C45A: the self-cleavage was 0.01. The figure for G2C U43C G44A is 0.06; for G2C C18G C37U it is 0.04. For G2C C18A G29A, the self-cleavage turned out to be 0.09.

In the case of G2C C10A C13A C23G, the self-cleavage is 0.02.

G2C G5U A14G U38A: the self-cleavage came out at 0. Take G2C G7C C8A: the self-cleavage was 0.07.

Take G2C U20C C42A: the self-cleavage was 0.31. Regarding G2C C13G C23G, the self-cleavage was determined as 0.04.

In the case of G2C C15A U28A G29U, the self-cleavage was determined as 0.01. Take G2C C15U C23U A26C C46A: the self-cleavage is 0.13. The same measure for G2C G30U C46U: 0.05; for G2C G5A U28G: 0.02; for G2C U9A A11C C18A G29A G35U G44C: 0.01. G2C U9C A11U C13U: the self-cleavage was found to be 0.08. Consider G2C G7C C45G, for which the self-cleavage amounted to 0.51.

Turning to G2C C10U U20G G22A A24G, the self-cleavage was 0.01. The figure for G2C C13U G19U U20C is 0.15; for G2C U9A C13A it is 0.61.

As to G2C G5A G22U A39G, the self-cleavage is 0.03.

G2C U20A C23U G36C U38G C45G: the self-cleavage worked out at 0.01. For G2C U32G C45A, the self-cleavage amounted to 0.03. G2C G19A U20A: the self-cleavage was determined as 0.07.

G2C C10A C13U U28A G36U C42A: the self-cleavage came to 0. The figure for G2C G29U U32C is 0.27; for G2C G17C G27A G33A U43C it is 0.02.

Turning to G2C G22C U38C, the self-cleavage came to 0.03. For G2C C10U C37G, the self-cleavage is 0.02.

Consider G2C C13U C15A G40U, for which the self-cleavage was found to be 0.02.

For G2C C31A A39C C45A, the self-cleavage was determined as 0.08. The same measure for G2U A4U C23U: 0.06; for G2U A4U U32A: 0.02. Turning to G2C G19A C23G G27A, the self-cleavage was 0.45. G2C G21A U32A: the self-cleavage stood at 0.04.

For the variant G2C G7A C18A U20G G35U C37U, the self-cleavage stood at 0.05. The same measure for G2C C10A G22C: 0.01; for G2C G5U G17C C42A: 0.01. The figure for G2U A6C G19U is 0.02; for G2U A4U U28A it is 0.04; for G2U A4C G19U G30U G35C U43A it is 0.01.

Take G2C C13U C23G G29C G35U U43C: the self-cleavage is 0.03.

Turning to G2C U20A G36U C37A, the self-cleavage amounted to 0. As for G2C G21U C23G, the self-cleavage amounted to 0.06. Turning to G2C G21U U32A G33A, the self-cleavage was 0.05. The figure for G2C U9G C13U G21A C23G U32G G35A is 0.13; for G2C G21C A41C U43G it is 0.04; for G2U A6G G7U C8A G22U C31A it is 0.09. The figure for G2C U9G A26U C31A is 0.04; for G2C G19U G21U G35C C42U it is 0.07. The figure for G2C U20A C31A U34G A39G C42U C45A is 0; for G2C G21A A24C G40U C45G it is 0.02; for G2C C13A A16U it is 0. For the variant G2C G22U C37U, the self-cleavage was 0.08. On to G2C U9A C18G G19A U20G G27A G33C, for which the self-cleavage turned out to be 0.04.

For G2C U9C U38A C45A, the self-cleavage is 0.01.

For G2C G21U G27C G40C, the self-cleavage stood at 0.04. The figure for G2C C31A A41U C45A is 0.02. G2C G5U G7A U20G G22U C23A: the self-cleavage was found to be 0.05. The same measure for G2C C15U A26U U28G C46U: 0; for G2C G30U C37G: 0.01. The figure for G2U A4C C8U C37U is 0.27. Turning to G2C G7U C31U, the self-cleavage is 0.17.

In the case of G2C G17A G19A G22C G35A C42U, the self-cleavage was 0.09. The same measure for G2U A6C C8A U9G C23U C37U C42U U43A: 0.04; for G2C C13A A14C G27U: 0.06; for G2C U28C A41C: 0.01. For G2U A4U G5U U9A G36U A41U G44C, the self-cleavage stood at 0.01. On to G2C U34G C42G, for which the self-cleavage came out at 0.01. The figure for G2C C10A C23U A26G is 0.03. For the variant G2C U20G G21A G27C C46A, the self-cleavage came to 0.02. As for G2C G7A G21U U32G, the self-cleavage amounted to 0.05. Turning to G2U A6C C8G G19A G33U U34A, the self-cleavage came to 0.04.

For G2C G5A U34A, the self-cleavage is 0.05. The same measure for G2C G33U G35A: 0.03; for G2U A6C G7U C18A A25G G35C: 0.16; for G2C C18G G33U U38C: 0.01.

Regarding G2C C15A C18U G35C C42G, the self-cleavage turned out to be 0.11. Take G2C U9G C13U A14C C23U: the self-cleavage was 0.07. The figure for G2C G22U C42A G44U is 0.09; for G2C C8U C15U it is 0.36; for G2C U20G U32G A39U it is 0. The figure for G2U A4U C8G is 0.02. The same measure for G2C G5A A6G A25C U28C: 0.04; for G2C C8U U9A C15U G17C A24G: 0.11; for G2C G17C G30C: 0.07. As for G2C C8U C10A, the self-cleavage came to 0.03.

Regarding G2C G27A G29C, the self-cleavage turned out to be 0.1. The same measure for G2C C13A A16U A25G C31A C46G: 0.13. With G2C C15A G19A, the self-cleavage came to 0.03. As for G2C C13A U28A G29C G33A, the self-cleavage turned out to be 0.04. The same measure for G2C C18A G40A C42G: 0.06; for G2C C10A A11U C23G C37U: 0; for G2C C31G G40U: 0.05. For G2C G7U U20A C45U, the self-cleavage is 2.53. For the variant G2C G40A U43G, the self-cleavage was 0.02. On to G2C G40A U43A, for which the self-cleavage was found to be 0.07. The figure for G2C G19U C42A is 0.02; for G2C G7C C10G C18G G29A U34C G35A A41U it is 0.01; for G2C G27C G35A it is 0.03. The figure for G2C C31A G35U C46A is 0.03; for G2C G5U C23G G27C G35U it is 0.08; for G2C C23G C31G it is 0.06. The same measure for G2C G7C A11U A14U A16G G19U G21C A41C: 0.01; for G2U A4G C8A C31U C37U A41G G44A C45A C46A: 0.02; for G2C U9C C13A: 0.09.

Turning to G2C C10A A25U U28C G29U U43G, the self-cleavage was 0. The figure for G2C C45U C46U is 0.04; for G2C G30A U32C C45U it is 0.03. In the case of G2C G29A U34C, the self-cleavage is 0.02. Consider G2C C10A G17U, for which the self-cleavage came out at 0.03. G2C G36A C37G: the self-cleavage is 0.02. The figure for G2C G17U C37G is 0.24; for G2U A4G U20C A26C it is 0.04; for G2C C10G C13U G35U it is 0.03.

In the case of G2C C15U C31G U32C U43G, the self-cleavage stood at 0.01.

(Values after the RNAGym collection of RNA variant scans (doi:10.7554/elife.90254).)
